Laboratory results: the supplement of paper PMC11125491
± gives the standard deviation of the averaged measurements. Growth of baker's yeast expressing single-residue variants of Pneumocystis jirovecii dihydrofolate reductase in 8.8 or 44 µM methotrexate (about 75% and 90% inhibition of the wild type). Selection coefficient per generation; 0 = like wild type, above 0 = less sensitive, below 0 = more sensitive or loss of function. No active / inactive call per row; the paper calls resistant above 0.220 (8.8 µM) or 0.243 (44 µM) together with a significance test. At 44 µM about 15% of codons end with one read or none, so the lowest values are floors (replicate rank correlation 0.74; 0.94 at 8.8 µM).

B1: UniProt A0EPZ9; numbered along this chain (parent)
chain: MDWQKSLTLIVALTLSRGIGLKNDLPWKLKSDMMFFSRVTSGLLVTRSTGQMNVVLMGRKTWESLPAHSRPLKNRINVVISRQEVLDLGGGAYHARSLDDALALLSQIYDSTSKIQLNRVFVIGGGELCKAAMEHSRLNRIIATVIHNEVDCDVFFPIDFRSSQSCLPWRKQDHSVLEAWVGSKVPQGKINENGFIYEFEMWIRDI

Variants of: B1
Assay: selection coefficient against synonymous wild-type codons (log2 per generation); higher = faster growth than wild type
Conditions: with Saccharomyces cerevisiae carrying the variant on a plasmid
Experimental: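 Pooled growth of yeast carrying single-residue variants of P. jirovecii dihydrofolate reductase (own DFR1 gene intact), two passages at 30 °C, three cultures, sequenced before and after. Codons with under 15 starting reads are left out; codons of one change are averaged.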

Variant | selection coefficient against synonymous wild-type codons (log2) (methotrexate 8.8 µM) | selection coefficient against synonymous wild-type codons (log2) (methotrexate 44 µM)
V185R | 0.0229 ± 0.042 | 0.0581 ± 0.071
V185E | -0.249 ± 0.018 | -0.319 ± 0.079
V185N | -0.296 ± 0.13 | -0.263 ± 0.14
V185M | -0.0662 ± 0.015 | -0.0922 ± 0.052
V185P | -0.143 ± 0.093 | -0.241 ± 0.093
V185Y | -0.222 ± 0.057 | -0.143 ± 0.19
V185S | -0.15 ± 0.078 | -0.188 ± 0.12
V185L | -0.106 ± 0.043 | -0.217 ± 0.098
V185A | -0.0252 ± 0.028 | -0.02 ± 0.086
V185W | -0.384 ± 0.04 | -0.364 ± 0.14
S183K | 0.102 ± 0.02 | -0.0281 ± 0.16
S183N | -0.0558 ± 0.077 | -0.07 ± 0.015
S183P | -0.148 ± 0.089 | -0.319 ± 0.12
S183D | 0.0276 ± 0.026 | -0.0841 ± 0.11
S183C | -0.0479 ± 0.037 | -0.14 ± 0.044
S183R | -0.0166 ± 0.042 | -0.122 ± 0.18
S183E | -0.0406 ± 0.11 | -0.0698 ± 0.079
S183A | -0.0351 ± 0.021 | -0.148 ± 0.17
S183H | -0.0523 ± 0.042 | -0.16 ± 0.068
S183F | -0.251 ± 0.058 | -0.26 ± 0.23
S183L | -0.334 ± 0.11 | -0.339 ± 0.12
S183W | -0.364 ± 0.058 | -0.331 ± 0.046
S183V | -0.217 ± 0.076 | -0.273 ± 0.15
S183Q | -0.0683 ± 0.04 | -0.0632 ± 0.064

Variant | selection coefficient against synonymous wild-type codons (log2) (methotrexate 8.8 µM) | selection coefficient against synonymous wild-type codons (log2) (methotrexate 44 µM)
S183M | -0.304 ± 0.15 | -0.351 ± 0.1
S183T | -0.0138 ± 0.037 | -0.128 ± 0.1
S183Y | -0.239 ± 0.035 | -0.412 ± 0.03
S183G | -0.000876 ± 0.028 | -0.047 ± 0.074
S183I | -0.331 ± 0.028 | -0.368 ± 0.075
V181H | 0.103 ± 0.014 | 0.0353 ± 0.056
V181D | -0.0978 ± 0.088 | -0.185 ± 0.13
V181G | -0.0201 ± 0.049 | -0.0689 ± 0.049
V181M | 0.00842 ± 0.035 | -0.272 ± 0.085
V181I | -0.0882 ± 0.082 | -0.0319 ± 0.11
V181E | 0.00309 ± 0.0089 | -0.119 ± 0.12
V181Y | -0.0599 ± 0.075 | -0.111 ± 0.14
V181S | 0.132 ± 0.058 | 0.0867 ± 0.081
V181N | 0.0483 ± 0.1 | -0.132 ± 0.0062
V181A | 0.0672 ± 0.054 | -0.0195 ± 0.064
V181P | -0.566 ± 0.19 | -0.0676 ± 0.47
V181F | 0.00369 ± 0.048 | -0.0011 ± 0.044
V181Q | 0.0216 ± 0.084 | 0.0111 ± 0.11
V181R | -0.0101 ± 0.074 | -0.0342 ± 0.081
V181W | -0.143 ± 0.047 | -0.193 ± 0.15
V181C | -0.0414 ± 0.056 | -0.174 ± 0.18
V181T | 0.0631 ± 0.057 | 0.0677 ± 0.15
V181L | -0.0387 ± 0.056 | -0.123 ± 0.11
W180N | 0.102 ± 0.061 | -0.0348 ± 0.17

Variant | selection coefficient against synonymous wild-type codons (log2) (methotrexate 8.8 µM) | selection coefficient against synonymous wild-type codons (log2) (methotrexate 44 µM)
W180T | 0.168 ± 0.04 | 0.1 ± 0.062
W180K | -0.223 ± 0.034 | -0.118 ± 0.0097
W180G | -0.113 ± 0.052 | -0.193 ± 0.17
W180M | 0.0502 ± 0.01 | -0.0392 ± 0.14
W180D | 0.149 ± 0.045 | 0.0655 ± 0.086
W180V | 0.0806 ± 0.07 | -0.08 ± 0.051
W180I | 0.00369 ± 0.0057 | -0.0176 ± 0.1
W180E | 0.269 ± 0.074 | 0.147 ± 0.12
W180F | 0.0341 ± 0.038 | -0.0509 ± 0.079
W180Y | 0.106 ± 0.038 | 0.00799 ± 0.045
W180L | 0.0674 ± 0.061 | -0.0186 ± 0.13
W180H | 0.205 ± 0.081 | 0.0925 ± 0.16
W180P | -0.579 ± 0.18 | -0.285 ± 0.11
W180A | 0.176 ± 0.032 | 0.0178 ± 0.17
W180S | 0.14 ± 0.055 | 0.0733 ± 0.046
W180C | 0.093 ± 0.1 | 0.0274 ± 0.048
W180R | -0.267 ± 0.1 | -0.169 ± 0.13
W180Q | 0.128 ± 0.074 | 0.0634 ± 0.035
A179R | -0.0133 ± 0.022 | -0.123 ± 0.27
A179W | -0.316 ± 0.052 | -0.195 ± 0.14
A179F | -0.341 ± 0.024 | -0.408 ± 0.063
A179L | -0.328 ± 0.11 | -0.348 ± 0.18
A179G | 0.047 ± 0.041 | -0.0244 ± 0.093
A179V | -0.316 ± 0.044 | -0.283 ± 0.12

Variant | selection coefficient against synonymous wild-type codons (log2) (methotrexate 8.8 µM) | selection coefficient against synonymous wild-type codons (log2) (methotrexate 44 µM)
A179N | 0.0539 ± 0.024 | -0.0563 ± 0.12
A179Y | -0.263 ± 0.058 | -0.328 ± 0.21
A179K | 0.128 ± 0.018 | 0.0285 ± 0.013
A179E | 0.121 ± 0.036 | 0.12 ± 0.041
A179T | 0.0191 ± 0.025 | 0.0805 ± 0.091
A179C | -0.228 ± 0.098 | -0.234 ± 0.14
A179I | -0.451 ± 0.04 | -0.38 ± 0.14
A179S | 0.00351 ± 0.046 | -0.00683 ± 0.047
A179D | 0.102 ± 0.032 | 0.0674 ± 0.036
G188A | -0.0985 ± 0.087 | -0.248 ± 0.067
G188S | -0.107 ± 0.066 | -0.0842 ± 0.089
G188K | 0.00953 ± 0.07 | -0.145 ± 0.13
G188Q | -0.174 ± 0.066 | -0.211 ± 0.057
G188I | -0.263 ± 0.2 | -0.12 ± 0.1
G188C | -0.171 ± 0.07 | -0.18 ± 0.021
G188W | -0.262 ± 0.052 | -0.331 ± 0.095
G188M | -0.106 ± 0.071 | 0.0656 ± 0.07
G188E | -0.0205 ± 0.066 | -0.0372 ± 0.062
G188V | -0.164 ± 0.05 | -0.246 ± 0.058
G188F | -0.137 ± 0.047 | -0.12 ± 0.031
G188D | -0.0282 ± 0.057 | 0.0271 ± 0.11
G188T | -0.138 ± 0.062 | -0.18 ± 0.2
G188P | -0.252 ± 0.18 | -0.078 ± 0.071
G188L | -0.161 ± 0.063 | -0.235 ± 0.087

Variant | selection coefficient against synonymous wild-type codons (log2) (methotrexate 8.8 µM) | selection coefficient against synonymous wild-type codons (log2) (methotrexate 44 µM)
G188R | -0.0887 ± 0.068 | -0.158 ± 0.11
I190V | -0.0297 ± 0.038 | -0.0552 ± 0.044
I190T | -0.0716 ± 0.034 | -0.283 ± 0.16
I190K | -0.118 ± 0.053 | -0.312 ± 0.19
I190G | -0.291 ± 0.095 | -0.375 ± 0.14
I190W | -0.335 ± 0.043 | -0.341 ± 0.17
I190D | -0.245 ± 0.069 | -0.299 ± 0.14
I190A | -0.228 ± 0.057 | -0.256 ± 0.18
I190L | -0.15 ± 0.054 | -0.217 ± 0.14
I190Q | -0.0486 ± 0.036 | -0.118 ± 0.15
I190H | -0.191 ± 0.049 | -0.28 ± 0.12
I190M | -0.168 ± 0.032 | -0.235 ± 0.11
I190C | -0.168 ± 0.07 | -0.273 ± 0.018
I190S | -0.176 ± 0.061 | -0.258 ± 0.16
I190R | -0.168 ± 0.045 | -0.266 ± 0.13
I190E | -0.133 ± 0.03 | -0.227 ± 0.17
I190Y | -0.301 ± 0.15 | -0.181 ± 0.071
I190P | -0.202 ± 0.077 | -0.261 ± 0.12
I190N | -0.134 ± 0.054 | -0.0983 ± 0.059
I190F | -0.19 ± 0.033 | -0.152 ± 0.14
